In patent US10966978B2, “Dose and regimen for HDM2-p53 interaction inhibitors” (Novartis AG, priority 2016, dated 2021):

Test system: TP53 wild-type (WT) advanced solid tumors
Format: in vivo, human
[1] = 21 sarcoma patients, regimen 1B, September 2017

COc1ncc(-c2nc3c(n2C(C)C)[C@H](c2ccc(Cl)cc2)N(c2cc(Cl)cn(C)c2=O)C3=O)c(OC)n1 [HDM201, (S)-5-(5-Chloro-1-methyl-2-oxo-1,2-dihydro-pyridin-3-yl)-6-(4-chloro-phenyl)-2-(2,4-dimethoxy-pyrimidin-5-yl)-1-isopropyl-5,6-dihydro-1H-pyrrolo[3,4-d]imidazol-4-one]
partial response (PR), number of patients [1]: 5
progressed disease (PD), number of patients [1]: 5
stable disease (SD), number of patients [1]: 11
unconfirmed PR, number of patients (regimen 1B 120 mg, 9 patients treated, liposarcoma): 1
PR, number of patients (regimen 1B 120 mg, 9 patients treated, soft tissue sarcoma): 1
